According to the RNAGym collection of RNA variant scans (doi:10.1073/pnas.2313332121):
This sample is rich in variants without activity.

B1: TPR 5TU (parent)
chain: GGAUCUUCUCGAUCUAACAAAAAAGACAAAUCUGCCACAAAGCUUGAGAGCAUCUUCGGAUGCAGAGGCGGCAGCCUUCGGUGGCGCGAUAGCGCCAACGUUCUCAACUAUGACACGCAAAACGCGUGCUCCGUUGAAUGGAGUUUAUCAUG

Variants of: B1
Assay: polymerase ribozyme fitness, log enrichment relative to wild type (log ratio); higher = more active; in vitro selection for triplet polymerase activity
Procedure, shortened: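 Fitness measures genotype enrichment against wild-type enrichment on a logarithmic scale, with inverse-variance-weighted averaging of replicates. The logarithm is base 2, and genotypes were kept only with ≥10 input reads and ≥1 read per output in Illumina sequencing. The sequenced libraries came from one triplicate in vitro selection round, including frozen incubation at −7 °C, of PCR-built, transcribed mutant libraries of each subunit of a heterodimeric triplet polymerase ribozyme.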

Variant	polymerase ribozyme fitness (log ratio)
C51G G68A C79G G86C	≤ -4.2
G50C A52G C95U U127A	≤ -4.2
G50C U53G U55A C87U C99A C132U U134A A138U U148G	≤ -4.2
G50A A64U A91U U101A	≤ -4.2
G50U G67U G84A C85U G141A	≤ -4.2
G50C G74A C85A U102C A115C	≤ -4.2
G50U U78A A91C	≤ -4.2
G50C U109G A113G A120C U130G	≤ -4.2
C51A U78G C79A G83A C114A	≤ -4.2
G50U G94A U104C G133U U148A A150C	≤ -4.2
G50U G65A A91C A121G G128A A137U	≤ -4.2
G50C G70C C72U C95A A121U	≤ -4.2
G50C G86U U104A A137U G140U	≤ -4.2
C51A C87U C118U U144A U145G U148C	≤ -4.2
G50A U56A G70A C96U G143C C149U	≤ -4.2
G50U G84U	-1.81
G50C C93A G143A	≤ -4.2
G50C U56A G88C A120G	≤ -4.2
C51G G71U	≤ -4.2
G50A C54U C85U G112C A115G A122U G133C	≤ -4.2
C51A A52C A64C C95U U101C A121C G133C U135G	≤ -4.2

Variant	polymerase ribozyme fitness (log ratio)
G50A C57U G70A C79U G84U U102G G133A	≤ -4.2
G50A C85A G88A A121G	≤ -4.2
G50U C72A A89C G92A C129A A137G A150U	≤ -4.2
G50C U55G G94A A106C U134A C149A	≤ -4.2
C51G G94A U135A	-3.11
G50U A60U C87U G94A U146A	≤ -4.2
C51G G71C G86U G88A C116U G136A A147U C149G	≤ -4.2
G50U U61A C93G C105U A107G	≤ -4.2
G50C G94A U127C G133U A138C	≤ -4.2
G50C C96U A97U C99U	≤ -4.2
G50C C87A C93A C99U A137U A138C	≤ -4.2
G50A A66C U111G A113U G124U U139C	≤ -4.2
G50U C95A U109G	-3.26
G50U C72G G86U A106U	≤ -4.2
G50A A52G C76U A98G C123G	-2.81
G50A C57G A60U G68U C87A U135G	≤ -4.2
G50A C51U A52U G94U U134A	≤ -4.2
C51G G74A U77G A91G C96U A98G A107G C118G A119C G128C A137U	≤ -4.2
G50A C57U A66C A106U C118U	≤ -4.2
C51A A52G G58A C85A C93G A107C	≤ -4.2
G50A C93A A97G C99U U109G	≤ -4.2

Variant	polymerase ribozyme fitness (log ratio)
G50C C57G G80A C116U	≤ -4.2
G50A C57A U127A G143U	-4.04
G50A C93G	≤ -4.2
G50A U55A A97C A147U U148A	≤ -4.2
G50A C54U C75A A107U A147C	≤ -4.2
C51G G83A G86A C95G G141C C149G	≤ -4.2
G50U A150G	-2.11
G50U G58A	0.88
G50A C57G C116A G128U U146G	≤ -4.2
G50A A91G A121C U145G	≤ -4.2
C51A U55A C57G G92C C93A G133U U144G	≤ -4.2
G50A U56A G80C C93A G94A U104G C129U	≤ -4.2
C51A C85A	-2.75
C51G G83A U134C	-3.62
G50A U61G C75A G83U A107G G136U	≤ -4.2
C51A C85U U102G A147C A150U	≤ -4.2
G50A C93U A142U	-3.71
C51A G68A G81A C99G U135C	≤ -4.2
G50A C54G G71C A97G G117U G136U	≤ -4.2
G50C A98U U101A	≤ -4.2
G50A U56A G86A	-3.11

Variant	polymerase ribozyme fitness (log ratio)
G50C C54A C72A A89C A98U A121U	≤ -4.2
C51A G81A A147G U148G	≤ -4.2
C51G G133U	≤ -4.2
G50C A91G A97G A110G G117A	≤ -4.2
G50C U78A C85U	≤ -4.2
G50C C76U U90A C93U U104G U144C	≤ -4.2
C51A U55G C95U C105A G117U	≤ -4.2
G50C C87A	≤ -4.2
G50C C87G	≤ -4.2
C51A G94U C103U C129A	≤ -4.2
G50U U78A	≤ -4.2
G50U G74U	≤ -4.2
C51G A66G G83C C96A	≤ -4.2
G50A G92C C108U	≤ -4.2
G50A U56G G71A U77C G94C	≤ -4.2
C51A G94C	-1.47
G50C A89G C118A A121C	≤ -4.2
G50C C54U U56A G59U	-3.48
G50U A64G G71A U82G A91U C125A	≤ -4.2
G50C G86U U111G	≤ -4.2
G50U A66G A73C G84U U134A	≤ -4.2
